Experimental data: the supplement of paper PMC10037445
Where “and” joins values, the source holds several entries; their conditions need not be identical. Equal entries are not always repeated. Over roughly 2,900 compounds, “IRF Lucia reporter activity, fold change vs agonist alone” has its median near 0.9; the highest 2% begin near 2.8. The list shows a part of the results.

Columns and labels:
[1] = system: RAW-Dual; test: IRF Lucia reporter activity, fold change vs agonist alone; cytotoxicity flag (confluency mask): not cytotoxic; higher = enhanced IRF activity
In short: (§1)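 Cytotoxic wells were those whose IncuCyte confluency was below 70% of agonist controls in both mask sets. The cells were RAW-Dual macrophages at 50,000 cells/well in DMEM on 384-well plates, dosed with 50 nL of library stock by pin tool, stimulated with a PRR agonist 1 h later, and kept at 37 °C, 5% CO2 for 20 hours. IRF and NF-κB reporter activity, as fold change over agonist-alone wells, came from supernatant read by QuantiLuc luminescence and QuantiBlue absorbance, respectively.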

[2] = system: RAW-Dual; test: IRF Lucia reporter activity, fold change vs agonist alone; higher = enhanced IRF activity; conditions: agonist: MPLA (TLR4) […]
In short: as §1

[3] = system: RAW-Dual; test: IRF Lucia reporter activity, fold change vs agonist alone; cytotoxicity flag (confluency mask): cytotoxic (confluency <70% of control); higher = enhanced IRF activity
In short: as §1

[4] = agonist: 3'3'-cGAMP (STING) 10 ug/mL
[5] = library stock concentration (final ~1000-fold dilution): 10 mM, cytotoxicity flag (confluency mask): not cytotoxic
[6] = library stock concentration (final ~1000-fold dilution): 10 mM, cytotoxicity flag (confluency mask): cytotoxic (confluency <70% of control)

CC(=O)O/N=C1/C(=O)N(Cc2cc(Cl)ccc2Cl)c2ccc(Cl)cc21 (library stock concentration (final ~1000-fold dilution): 10 mM)
IRF Lucia reporter activity [1, 4]: 0.257
IRF Lucia reporter activity ([1]; agonist: LPS (TLR4) 0.1 ug/mL): 0.868

CC(=O)O/N=C1/C(=O)N(Cc2cc(Cl)ccc2Cl)c2ccc(Cl)cc21
IRF Lucia reporter activity [2, 5]: 0.945

CC(C)(C#N)c1cc(Cn2cncn2)cc(C(C)(C)C#N)c1
IRF Lucia reporter activity [2, 5]: 1.06

CC(C)(C#N)c1cc(Cn2cncn2)cc(C(C)(C)C#N)c1 (library stock concentration (final ~1000-fold dilution): 10 mM)
IRF Lucia reporter activity [1, 4]: 0.986
IRF Lucia reporter activity ([1]; agonist: LPS (TLR4) 0.1 ug/mL): 0.315

COc1cc2nccc(Oc3ccc(NC(=O)Nc4cc(C)on4)c(Cl)c3)c2cc1OC
IRF Lucia reporter activity [2, 5]: 0.536

COc1cc2nccc(Oc3ccc(NC(=O)Nc4cc(C)on4)c(Cl)c3)c2cc1OC (library stock concentration (final ~1000-fold dilution): 10 mM)
IRF Lucia reporter activity [1, 4]: 0.246
IRF Lucia reporter activity ([1]; agonist: LPS (TLR4) 0.1 ug/mL): 0.506

CC(C)CC(NC(=O)C(O)C(N)Cc1ccccc1)C(=O)O (stereo not given)
IRF Lucia reporter activity [2, 5]: 0.954

CC(C)CC(NC(=O)C(O)C(N)Cc1ccccc1)C(=O)O (stereo not given) (library stock concentration (final ~1000-fold dilution): 10 mM)
IRF Lucia reporter activity [1, 4]: 1.02
IRF Lucia reporter activity ([1]; agonist: LPS (TLR4) 0.1 ug/mL): 0.897

C=CCNC(N)=S
IRF Lucia reporter activity [2, 5]: 1.03

C=CCNC(N)=S (library stock concentration (final ~1000-fold dilution): 10 mM)
IRF Lucia reporter activity [1, 4]: 1.08 and 0.787
IRF Lucia reporter activity ([1]; agonist: LPS (TLR4) 0.1 ug/mL): 1.14 and 1.03

COc1cccc(-c2cc(=O)c3ccccc3o2)c1N
IRF Lucia reporter activity [2, 5]: 1.06

COc1cccc(-c2cc(=O)c3ccccc3o2)c1N (library stock concentration (final ~1000-fold dilution): 10 mM)
IRF Lucia reporter activity [1, 4]: 0.722
IRF Lucia reporter activity ([1]; agonist: LPS (TLR4) 0.1 ug/mL): 1.13

CCCn1c(NC(=O)c2cccc(C(N)=O)c2)nc2ccccc21 (library stock concentration (final ~1000-fold dilution): 10 mM)
IRF Lucia reporter activity [1, 4]: 0.617
IRF Lucia reporter activity ([1]; agonist: LPS (TLR4) 0.1 ug/mL): 0.289

Cc1cn(CCN2CCN(c3ccccc3-c3cc(C#N)cc(C(=O)NCCCN4CCCC4)c3)CC2)c2ccccc12
IRF Lucia reporter activity [2, 6]: 0.0268

Cc1cn(CCN2CCN(c3ccccc3-c3cc(C#N)cc(C(=O)NCCCN4CCCC4)c3)CC2)c2ccccc12 (library stock concentration (final ~1000-fold dilution): 10 mM)
IRF Lucia reporter activity [3, 4]: 0.403
IRF Lucia reporter activity ([3]; agonist: LPS (TLR4) 0.1 ug/mL): 0.0293

O=C(CCc1ccc(O)cc1)c1c(O)cc(O)cc1O (library stock concentration (final ~1000-fold dilution): 10 mM)
IRF Lucia reporter activity [1, 4]: 0.81
IRF Lucia reporter activity ([1]; agonist: LPS (TLR4) 0.1 ug/mL): 0.76

O=C(CCc1ccc(O)cc1)c1c(O)cc(O)cc1O
IRF Lucia reporter activity [2, 5]: 0.853

N#Cc1cccc(-c2c[nH]c3ncnc(N4CCOCC4)c23)c1 (library stock concentration (final ~1000-fold dilution): 10 mM)
IRF Lucia reporter activity [1, 4]: 0.11
IRF Lucia reporter activity ([1]; agonist: LPS (TLR4) 0.1 ug/mL): 0.291

CN(CC(=O)N(Cc1ccc(C2CCCCC2)cc1)c1ccc(C(=O)O)cc1)S(=O)(=O)c1c(F)c(F)c(F)c(F)c1F (library stock concentration (final ~1000-fold dilution): 10 mM)
IRF Lucia reporter activity [3, 4]: 0.0132
IRF Lucia reporter activity ([3]; agonist: LPS (TLR4) 0.1 ug/mL): 0.366

CN(CC(=O)N(Cc1ccc(C2CCCCC2)cc1)c1ccc(C(=O)O)cc1)S(=O)(=O)c1c(F)c(F)c(F)c(F)c1F
IRF Lucia reporter activity [2, 6]: 0.118

OC(CNCC(O)C1CCc2cc(F)ccc2O1)C1CCc2cc(F)ccc2O1 (stereo not given) (library stock concentration (final ~1000-fold dilution): 10 mM)
IRF Lucia reporter activity [3, 4]: 0.476
IRF Lucia reporter activity ([3]; agonist: LPS (TLR4) 0.1 ug/mL): 0.897

OC(CNCC(O)C1CCc2cc(F)ccc2O1)C1CCc2cc(F)ccc2O1 (stereo not given)
IRF Lucia reporter activity [2, 6]: 1.36

C=CC(=O)Nc1cc2c(Nc3ccc(F)c(Cl)c3)ncnc2cc1OCCCN1CCOCC1
IRF Lucia reporter activity ([2]; library stock concentration (final ~1000-fold dilution): 2 mM, cytotoxicity flag (confluency mask): not cytotoxic): 0.819

C=CC(=O)Nc1cc2c(Nc3ccc(F)c(Cl)c3)ncnc2cc1OCCCN1CCOCC1 (library stock concentration (final ~1000-fold dilution): 2 mM)
IRF Lucia reporter activity [1, 4]: 0.153
IRF Lucia reporter activity ([1]; agonist: LPS (TLR4) 0.1 ug/mL): 0.287

O=C(NCc1ccccc1)c1csc(Nc2ccncn2)n1
IRF Lucia reporter activity [2, 5]: 0.401

O=C(NCc1ccccc1)c1csc(Nc2ccncn2)n1 (library stock concentration (final ~1000-fold dilution): 10 mM)
IRF Lucia reporter activity [1, 4]: 0.653
IRF Lucia reporter activity ([1]; agonist: LPS (TLR4) 0.1 ug/mL): 0.508

CNCc1ccc(-c2cc(-c3nc(-c4ccc(S(=O)(=O)C(C)C)cc4)cnc3N)on2)cc1
IRF Lucia reporter activity [2, 5]: 1.08

CNCc1ccc(-c2cc(-c3nc(-c4ccc(S(=O)(=O)C(C)C)cc4)cnc3N)on2)cc1 (library stock concentration (final ~1000-fold dilution): 10 mM)
IRF Lucia reporter activity [1, 4]: 0.965
IRF Lucia reporter activity ([1]; agonist: LPS (TLR4) 0.1 ug/mL): 0.9

COC(=O)Nc1nc2ccc(C(=O)c3cccs3)cc2[nH]1 (library stock concentration (final ~1000-fold dilution): 10 mM)
IRF Lucia reporter activity [3, 4]: 0.119
IRF Lucia reporter activity ([3]; agonist: LPS (TLR4) 0.1 ug/mL): 1.5

COC(=O)Nc1nc2ccc(C(=O)c3cccs3)cc2[nH]1
IRF Lucia reporter activity [2, 6]: 1.92

Nc1ncc2[nH]cnc2n1 (library stock concentration (final ~1000-fold dilution): 1000 mM)
IRF Lucia reporter activity [1, 4]: 0.741
IRF Lucia reporter activity ([1]; agonist: LPS (TLR4) 0.1 ug/mL): 0.514

CCCC(=O)OC[C@@H](OC(=O)CCC)[C@@H](OC(=O)CCC)[C@H](Cn1c2nc(=O)[nH]c(=O)c-2nc2cc(C)c(C)cc21)OC(=O)CCC (library stock concentration (final ~1000-fold dilution): 10 mM)
IRF Lucia reporter activity [1, 4]: 0.581
IRF Lucia reporter activity ([1]; agonist: LPS (TLR4) 0.1 ug/mL): 1.35

N#C/C(=C/c1ccc(-c2cc(Cl)ccc2Cl)o1)C(=O)Nc1cccc2ncccc12 (library stock concentration (final ~1000-fold dilution): 10 mM)
IRF Lucia reporter activity [3, 4]: 0.777
IRF Lucia reporter activity ([3]; agonist: LPS (TLR4) 0.1 ug/mL): 1.08

N#C/C(=C/c1ccc(-c2cc(Cl)ccc2Cl)o1)C(=O)Nc1cccc2ncccc12
IRF Lucia reporter activity [2, 6]: 1.4

O=C(CCc1ccc(O)cc1)c1c(O)cc(O)cc1OC1OC(CO)C(O)C(O)C1O (stereo not given) (library stock concentration (final ~1000-fold dilution): 10 mM)
IRF Lucia reporter activity [1, 4]: 0.922
IRF Lucia reporter activity ([1]; agonist: LPS (TLR4) 0.1 ug/mL): 1.05

O=C(CCc1ccc(O)cc1)c1c(O)cc(O)cc1OC1OC(CO)C(O)C(O)C1O (stereo not given)
IRF Lucia reporter activity [2, 5]: 1.03

CC(C)NCC(O)COc1cccc2ccccc12.Cl (stereo not given) (library stock concentration (final ~1000-fold dilution): 10 mM)
IRF Lucia reporter activity [1, 4]: 0.809
IRF Lucia reporter activity ([1]; agonist: LPS (TLR4) 0.1 ug/mL): 1.23

CC(C)NCC(O)COc1cccc2ccccc12.Cl (stereo not given)
IRF Lucia reporter activity [2, 5]: 1.15

Cc1c(NC(=O)OCC2COCCN2)cn2ncnc(Nc3ccc4c(cnn4Cc4cccc(F)c4)c3)c12 (stereo not given) (library stock concentration (final ~1000-fold dilution): 10 mM)
IRF Lucia reporter activity [1, 4]: 0.267
IRF Lucia reporter activity ([1]; agonist: LPS (TLR4) 0.1 ug/mL): 1.28

Cc1c(NC(=O)OCC2COCCN2)cn2ncnc(Nc3ccc4c(cnn4Cc4cccc(F)c4)c3)c12 (stereo not given)
IRF Lucia reporter activity [2, 5]: 1.3

CCCCc1oc2ccc(NS(C)(=O)=O)cc2c1C(=O)c1ccc(OCCCN(CCCC)CCCC)cc1.Cl (library stock concentration (final ~1000-fold dilution): 10 mM)
IRF Lucia reporter activity [1, 4]: 1.06
IRF Lucia reporter activity ([1]; agonist: LPS (TLR4) 0.1 ug/mL): 0.105

CCCCc1oc2ccc(NS(C)(=O)=O)cc2c1C(=O)c1ccc(OCCCN(CCCC)CCCC)cc1.Cl
IRF Lucia reporter activity [2, 5]: 1.12

CNC(=O)c1cc(Oc2ccc(NC(=O)Nc3ccc(Cl)c(C(F)(F)F)c3)c(F)c2)ccn1 (library stock concentration (final ~1000-fold dilution): 10 mM)
IRF Lucia reporter activity [1, 4]: 0.331
IRF Lucia reporter activity ([1]; agonist: LPS (TLR4) 0.1 ug/mL): 0.588

CNC(=O)c1cc(Oc2ccc(NC(=O)Nc3ccc(Cl)c(C(F)(F)F)c3)c(F)c2)ccn1
IRF Lucia reporter activity [2, 5]: 0.63

NC(=O)Nc1cc(-c2cccc(F)c2)sc1C(=O)NC1CCCNC1 (stereo not given) (library stock concentration (final ~1000-fold dilution): 10 mM)
IRF Lucia reporter activity [1, 4]: 0.0411
IRF Lucia reporter activity ([1]; agonist: LPS (TLR4) 0.1 ug/mL): 0.135

NC(=O)Nc1cc(-c2cccc(F)c2)sc1C(=O)NC1CCCNC1 (stereo not given)
IRF Lucia reporter activity [2, 5]: 0.178

Cl.OC(CNCC(O)C1CCc2cc(F)ccc2O1)C1CCc2cc(F)ccc2O1 (stereo not given)
IRF Lucia reporter activity [2, 6]: 1.27

Cl.OC(CNCC(O)C1CCc2cc(F)ccc2O1)C1CCc2cc(F)ccc2O1 (stereo not given) (library stock concentration (final ~1000-fold dilution): 10 mM)
IRF Lucia reporter activity [3, 4]: 0.599
IRF Lucia reporter activity ([3]; agonist: LPS (TLR4) 0.1 ug/mL): 1.15

CN(C)CCOC(c1ccccc1)c1ccccc1.Cl (library stock concentration (final ~1000-fold dilution): 10 mM)
IRF Lucia reporter activity [1, 4]: 0.97
IRF Lucia reporter activity ([1]; agonist: LPS (TLR4) 0.1 ug/mL): 0.943

CN(C)CCOC(c1ccccc1)c1ccccc1.Cl
IRF Lucia reporter activity [2, 5]: 0.719

CC(C)=CCc1c(O)ccc(C(=O)/C=C/c2ccc(O)cc2)c1O (library stock concentration (final ~1000-fold dilution): 10 mM)
IRF Lucia reporter activity [3, 4]: 0.0218
IRF Lucia reporter activity ([3]; agonist: LPS (TLR4) 0.1 ug/mL): 0.114

NC(CSCCB(O)O)C(=O)O (stereo not given) (library stock concentration (final ~1000-fold dilution): 10 mM)
IRF Lucia reporter activity [1, 4]: 1.1
IRF Lucia reporter activity ([1]; agonist: LPS (TLR4) 0.1 ug/mL): 1.28

CN1CC(=O)N2C(Cc3c([nH]c4ccccc34)C2c2ccc3c(c2)OCO3)C1=O (stereo not given)
IRF Lucia reporter activity [2, 5]: 0.613

CN1CC(=O)N2C(Cc3c([nH]c4ccccc34)C2c2ccc3c(c2)OCO3)C1=O (stereo not given) (library stock concentration (final ~1000-fold dilution): 10 mM)
IRF Lucia reporter activity [1, 4]: 0.888
IRF Lucia reporter activity ([1]; agonist: LPS (TLR4) 0.1 ug/mL): 0.579

CN1C2CCCC1CC(NC(=O)c1nn(C)c3ccccc13)C2.Cl (stereo not given) (library stock concentration (final ~1000-fold dilution): 10 mM water)
IRF Lucia reporter activity [1, 4]: 0.867
IRF Lucia reporter activity ([1]; agonist: LPS (TLR4) 0.1 ug/mL): 0.867

CN1C2CCCC1CC(NC(=O)c1nn(C)c3ccccc13)C2.Cl (stereo not given)
IRF Lucia reporter activity ([2]; library stock concentration (final ~1000-fold dilution): 10 mM water, cytotoxicity flag (confluency mask): not cytotoxic): 1.2

CS(=O)(=O)O.Cc1c(O)cccc1C(=O)NC(CSc1ccccc1)C(O)CN1CC2CCCCC2CC1C(=O)NC(C)(C)C (stereo not given) (library stock concentration (final ~1000-fold dilution): 10 mM)
IRF Lucia reporter activity [1, 4]: 0.918
IRF Lucia reporter activity ([1]; agonist: LPS (TLR4) 0.1 ug/mL): 3.62

CS(=O)(=O)O.Cc1c(O)cccc1C(=O)NC(CSc1ccccc1)C(O)CN1CC2CCCCC2CC1C(=O)NC(C)(C)C (stereo not given)
IRF Lucia reporter activity [2, 5]: 2.24
